Test results taken from publication PMC12136788.
The other results are listed elsewhere or left out.

T1: UNK ZnF1-3 (human, UniProt Q9C0B0 31-174)
T1 sequence: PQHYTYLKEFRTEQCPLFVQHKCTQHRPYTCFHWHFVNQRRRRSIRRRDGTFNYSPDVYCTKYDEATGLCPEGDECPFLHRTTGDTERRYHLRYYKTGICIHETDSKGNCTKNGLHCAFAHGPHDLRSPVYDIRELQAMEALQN

B1: chr1:243329018:243329019:-_ENSG00000143702_ENST00000366542|hu_mus|FALSE|FALSE (ssRNA)
RNA: GGGAGUUCUACAGUCCGACGAUCAAACUUAGUAGGAGUCCACUGGGCCUGCUCCUUUUGCUCUUGCUGCUGCAUUUUAGCCAAUGUUUGUUUUACCAAAGAAGUUUCCUUUUCCGUCUCACUCUUCUCCUUGCUAGAUGAGCUCAACAGAGGAUUGAGCAUCA
B2: chr1:182620099:182620100:+_ENSMUSG00000058729_ENSMUST00000085803|mus_hu|motif|central (ssRNA)
RNA: GGGAGUUCUACAGUCCGACGAUCCAAAGGUUUCUUUUAUAUGUUAUGAUAAAUUAAAAUAUUUAUUAUUAUAAAAUGAUCGGCAGAACCAUGUCACAUUGCAAGUAUAUAUAACAUAUACUUGUAAAGUCCACAUUUCCCAUCCAACAGAGGAUUGAGCAUCA
B3: chr17:57762449:57762450:+_ENSG00000141367_ENST00000269122|hu_hu|motif|central (ssRNA)
RNA: GGGAGUUCUACAGUCCGACGAUCUUCAUGUUUUUCCAAACGCUGAGCAAGCGAGAUAUUGUCAAAGUUGUCAUAAGCAUCGGUUGAUGUUCGCAGAGCCUGAUAAUCUUCUUCUGUAAUAAAAAGAUUGUUCAAUGAUUCAUUCAACAGAGGAUUGAGCAUCA
B4: chr2:37325018:37325019:+_ENSMUSG00000035437_ENSMUST00000112920|perfect_dup|motif|central (ssRNA)
RNA: GGGAGUUCUACAGUCCGACGAUCAUUAUUUGUAGAUGGUGUCUCAUCUCCUUGCCUGGAAACCAAGACAAAAUCUUCACGGUUAAGAGUAGAUACUGAGUCUGAAGAGACACUGAUUUUUCCAACAGAAGCCUUGUCAUCCAUCAACAGAGGAUUGAGCAUCA
B5: chr17:65740002:65740003:+_ENSG00000130935_ENST00000581375|hu_hu|hu_hu_hu_mus_False|1_38 (ssRNA)
RNA: GGGAGUUCUACAGUCCGACGAUCAACAAAUCUUUCUUCCCUGGACGAACAGGAAGAUUCAUAUUAAAAAAAAUAUAUAUCCAUCAAGUUAGGUGUGUAAUAUCAGACUUUACUCCCAGCACUUUGGGAGGUGGAUCCUCUAUUCAACAGAGGAUUGAGCAUCA
B6: chr7:54825262:54825263:-_ENSG00000132432_ENST00000352861|hu_hu|hu_hu_hu_mus_False|1_1 (ssRNA)
RNA: GGGAGUUCUACAGUCCGACGAUCCUGCCGGCUGGGCUCCACAAACUGCAUUACCUGAUCCAUGUUUGUUGGAUGGCGGAUUGAGAGCGUAGAGACACGUAGCUCAGGAGAGAACCGAGCCCAACGGAACCGGAAGCGGAAUCCCAACAGAGGAUUGAGCAUCA
B7: chr14:22664367:22664368:+_ENSMUSG00000021771_ENSMUST00000022293|mus_mus|FALSE|FALSE (ssRNA)
RNA: GGGAGUUCUACAGUCCGACGAUCAGACAGUGUAAGCUUCACACCAGGCCUCAGAGUCUGAGUAUAGCCCACUCCAAUUAAACUAGAGUUGUUGACCUUUGCAGAGAUAGAAGCAGUAGGAUCCAACUGGUAUUUAGCUGCAAUCAACAGAGGAUUGAGCAUCA
B8: 36391053_36391173_8692_3pUTR_ENSG00000092847_ENST00000373204|human|control|control (ssRNA)
RNA: GGGAGUUCUACAGUCCGACGAUCAUACUGAUCUGUUGGUAUAUGCCAUGACCCUGAGAUGACAAAAAUGAAGAGAAUAUAGCUUCUGCUCCUAGGAGUUCAUAGGCUCUAAAGAAGACAAAUUAUGGAAAUAAAUAUAGUAUGCAACAGAGGAUUGAGCAUCA
B9: chr5:70837361:70837362:+_ENSG00000145734_ENST00000358731|hu_mus|FALSE|FALSE (ssRNA)
RNA: GGGAGUUCUACAGUCCGACGAUCAUGAUGCAUGCGAUGUACUAAUGACAGGUGAACAAACCUCCGGAUAGUCAUGGACAACUUUUUGAUUUACAUUAUCUGGGCUAAAAGGAGCAUGACUUUUAUCCUCUGAAUGAACAUCAGCAACAGAGGAUUGAGCAUCA
B10: chr1:109605425:109605426:-_ENSG00000197780_ENST00000461096|hu_hu|motif|central (ssRNA)
RNA: GGGAGUUCUACAGUCCGACGAUCUAGUCAAGGACACAUUUCCACAAUGAACAAGUACUUACAAAUAUGUUAAUAAAACACGGACCCAAAUGCUUACCCUGCCAUCAGCUUUUUAAACAAUGCCAUUCCUGCUACUGAAAGCAUCAACAGAGGAUUGAGCAUCA
B11: chr7:141438946:141438947:+_ENSG00000106028_ENST00000265304|hu_mus|hu_hu_hu_mus_True|8_78 (ssRNA)
RNA: GGGAGUUCUACAGUCCGACGAUCGACGAAAUACCUGUAACACAGGUCUUCGAAACAUUCUAUUUUCUUUUCUUACAACCUAAUCUUUAGGCUUUUCCUAAAGGAAAGAAAGAAAAGAGAAAAAUGAGCAGGGGAUCAACUACACAACAGAGGAUUGAGCAUCA
B12: chr15:60656694:60656695:-_ENSG00000182718_ENST00000451270|hu_hu|FALSE|FALSE (ssRNA)
RNA: GGGAGUUCUACAGUCCGACGAUCUCUCUGGUAGGCGAAGGCAAUAUCCUGUCUCUGUGCAUUGCUGCGGUUGGUCAAAAUGUUGACAAUGGUGACCUCAUCCACACCUUUGGUCUUGAUGGCUGUUUCAAUGUUCAAAGCAUCCAACAGAGGAUUGAGCAUCA
B13: chrX:71549762:71549763:+_ENSMUSG00000019087_ENSMUST00000019231|mus_mus|mus_mus_mus_hu_False|78_98 (ssRNA)
RNA: GGGAGUUCUACAGUCCGACGAUCAAACCCGUGUACUCACUCUUAACAGCACAACAUUCCCCCCCAACGAUAACGACAGCCAAGCAGGACAGACAGUUAAGUAGUACUUCCACACUCCCAAACUCAGGGAGCCCUAUAACCUUACAACAGAGGAUUGAGCAUCA
B14: chr3:10015032:10015033:+_ENSMUSG00000027533_ENSMUST00000029046|mus_mus|mus_mus_mus_hu_True|8_38 (ssRNA)
RNA: GGGAGUUCUACAGUCCGACGAUCGUUUUUACCAUCACAAGUGAUGAUACAAUCUGGCUUGGCCAUUGCGCCCAUUUUUCGCAAAGCUAUUCCCACUCCUAGCUCUUUCAUGUAUUCAUCAAAGCCUUGGCUUUCCACCAGGCGCAACAGAGGAUUGAGCAUCA

The binders below were run against T1, UNK ZnF1-3 (assay: nsRBNS (natural sequence RNA bind-n-seq); RBNS binding buffer (assumed for nsRBNS): 25 mM Tris pH 7.5, 150 mM KCl, 3 mM MgCl2, 0.01% Triton X-100, 500 ug/ml BSA, 20 U/ml SUPERase-In, 4 C; UNK is unkempt and MSI1 is Musashi-1; names of the RNAs are library labels; protein concentration not given here; high values mean tight binding).

Binder	binding signal
B1	0.492 enrichment R
B2	1.94 enrichment R
B3	0.806 enrichment R
B4	0.558 enrichment R
B5	1.25 enrichment R
B6	1.3 enrichment R
B7	1.14 enrichment R
B8	1.94 enrichment R
B9	1.47 enrichment R
B10	1.83 enrichment R
B11	0.239 enrichment R
B12	0.703 enrichment R
B13	1.52 enrichment R
B14	0.648 enrichment R
